Source: article PMC3563359 (Nature communications, 2012)

Target: calmodulin (rat, UniProt P0DP29)
Test: crystal structure

binding result: binds
B1: CaM binding domain of the SK2-a channel (domain or fragment)
chain: not shown
